Experimental data from patent publication US20040086942A1, “Ige receptor antagonists” (priority 2003, published 2004).
Like-named read-outs stand apart in the source and are kept apart here. At least one peptide structure holds a part that was inferred or is arguable (an end, a ring closure or a residue). For some assays here: For at least one compound, name, drawing or mass did not settle the structure. Where a SMILES comes first, the peptide text is derived from it. Bridges are numbered along the chain shown (N, C = ends). [ ]: non-standard residue; d: D form. hCys = N[C@@H](CCS)C(=O)O; Ava = NCCCCC(=O)O

How the values were obtained:
[1] = 2D NMR structural score versus reference peptide; type: physicochemical; design: key: +++ indicates the peptide is structured similarly to IGE063 (SEQ ID NO:49); + indicates the peptide is structured similarly to IGE063 (SEQ ID NO:49), but is less stable; −/+ indicates the peptide has some elements of stable structure, but the conformation differs from the reference structure (e.g., a different turn type is evident); − indicates the peptide is predominantly unstructured in aqueous solution; conditions: reference IGE063
Experimental: Peptides were evaluated by 2D NMR spectroscopy to assess the effect of substitutions on the three-dimensional structure of the peptide analog. All peptides with a structural score indicated in Table 5 were analyzed by 2D NMR spectroscopy; backbone ^1H resonances were assigned and ^3JHN-Hα coupling constants were measured and compared to the reference peptide (IGE063, SEQ ID NO:49; see Example 5). Peptides are defined to be of similar structure to the reference peptide provided chemical shifts, coupling constants, and NOEs are consistent with that structure.
A structural score was assigned to peptides analyzed by 2D NMR spectroscopy. For each of these peptides, backbone ^1H resonances have been assigned, and the ^3JHN-Ha coupling constants have been measured and compared to the reference peptide (i.e., IGE134 (SEQ ID NOS:155, 171)). Peptides are defined to be of similar structure to the reference peptide provided. chemical shifts, coupling constants, and NOEs are consistent with that structure.

[2] = biological target: T1, alpha subunit of the human FcεRI receptor (Homo sapiens, UniProt P12319); assay: cell-based 125I-IgE binding inhibition assay on CHO FcεRI+ cells
T1 construct: expressed in transfected cells; host or cells: Chinese hamster ovary (CHO FcεRI+) cells
T1 sequence (P12319 26-257): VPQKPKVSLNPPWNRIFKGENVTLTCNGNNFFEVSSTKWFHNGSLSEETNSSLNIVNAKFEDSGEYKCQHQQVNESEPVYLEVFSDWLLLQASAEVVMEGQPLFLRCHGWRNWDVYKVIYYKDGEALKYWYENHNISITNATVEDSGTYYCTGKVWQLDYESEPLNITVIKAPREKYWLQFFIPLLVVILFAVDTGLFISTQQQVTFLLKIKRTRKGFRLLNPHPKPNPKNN
Experimental: . The following day the cells were rinsed three times with PBS and then once with F12/DMEM. Peptide stocks were reconstituted in 100 mM Hepes buffered water, pH 7.2, at a concentration of 5 mg/mL. Working concentrations of the peptide were diluted in assay buffer (see below). 75 ul, of a desired concentration of peptide was added to the top row of a separate 96 well microtiter plate and serially diluted 1:3 in 50 uL of the assay buffer (F12/DMEM, 1% BSA, 0.05% NaN3 and […] Hepes pH 7.2). Starting concentrations ranged from 50-500 uM. Next, 50 uL of the diluted peptide was transferred to the 96 microtiter well plate containing a monolayer of CHO FcεRI+ cells. After a 1 hour incubation at room temperature, 50 uL of ^125I-IgE (1.5 nM) was added to each well and incubated for an additional 45-60 minutes at 4° C. followed by 5 washes with 200 uL of assay buffer. Cells were solubilized with 200 uL of 1 N NaOH and transferred to a 96 microtiter tube for counting in a gamma counter to determine counts bound. The data were plotted using KaleidaGraph 3.0 and fitted using 4-parameter fits. IC50 values were determined for each peptide.
Six peptides based on selected clones from library #516 were synthesized and assayed for the ability to inhibit the binding of ^125I-IgE to a Chinese hamster ovary cell line expressing the alpha subunit of the IgE high affinity receptor, FcεRI. The peptides were synthesized as nine residue monomers and oxidized to allow the formation of a disulfide bridge resulting in a cyclic peptide. The size of each peptide was confirmed by mass spectrometry.

Question: Which results are given for CSCC[C@H](NC(=O)[C@@H]1CSSC[C@H](NC(=O)[C@H](CCCNC(=N)N)NC(=O)[C@@H]2CCCN2C(=O)[C@H](CC(C)C)NC(=O)[C@@H](N)CC(N)=O)C(=O)N[C@@H]([C@@H](C)O)C(=O)N[C@@H](CCC(=O)O)C(=O)NCC(=O)N[C@@H](C)C(=O)N[C@@H](Cc2c[nH]c3ccccc23)C(=O)NCC(=O)N[C@@H](Cc2c[nH]c3ccccc23)C(=O)N[C@@H](C(C)C)C(=O)N1)C(=O)O [IGE070, NLPRCTEGAWGWVCM] (H-NLPRCTEGAWGWVCM-OH; disulfide 5-14)?
Answer: Struct. Score [1]: +++; fold reduction in inhibition/binding ([2]; truncations and alanine substitutions of IGE063): > 500 fold

Question: For CSCC[C@H](NC(=O)[C@@H]1CSSC[C@H](NC(=O)[C@H](CCCNC(=N)N)NC(=O)[C@@H]2CCCN2C(=O)[C@H](CC(C)C)NC(=O)[C@@H](N)CC(N)=O)C(=O)N[C@@H]([C@@H](C)O)C(=O)N[C@@H](CCC(=O)O)C(=O)NCC(=O)N2CCC[C@H]2C(=O)N[C@@H](Cc2c[nH]c3ccccc23)C(=O)NCC(=O)N[C@@H](Cc2c[nH]c3ccccc23)C(=O)N[C@@H](C(C)C)C(=O)N1)C(=O)N[C@@H](C)C(=O)N[C@@H](C)C(=O)N[C@@H](CC(=O)O)C(=O)O [NLPRCTEGPWGWVCMAAD] (H-NLPRCTEGPWGWVCMAAD-OH; disulfide 5-14; N-terminus and C-terminus assumed), which IC50 ([2]; IGE037: initially, read-out: IC50) is on record?
Answer: 1 µM

Question: With CC(C)C[C@@H]1NC(=O)[C@H](CCC(=O)O)NC(=O)[C@H](C)NC(=O)CNC(=O)CNC(=O)[C@H](Cc2ccccc2)NC(=O)[C@H](Cc2ccc(O)cc2)NC(=O)[C@@H]2CSSCC[C@H](NC1=O)C(=O)N1CCC[C@H]1C(=O)N[C@@H](CC(=O)O)C(=O)N[C@@H](C(C)C)C(=O)N[C@H](C(=O)N[C@@H](Cc1ccc(O)cc1)C(=O)N[C@H](C(N)=O)C(C)C)CSSC[C@H](NC(=O)[C@H](CCC(N)=O)NC(=O)[C@@H](N)C(C)C)C(=O)N1CCC[C@H]1C(=O)N[C@@H](Cc1c[nH]cn1)C(=O)N[C@@H](Cc1ccccc1)C(=O)N2 [IGE164, VQCPHFCYFGGAEL(hC)PDVCYV-nh2] (H-VQCPHFCYFGGAEL[hCys]PDVCYV-NH2; disulfide 3-19, 7-15 (inferred); N-terminus assumed) as the compound, how does the “fold difference in activity relative to comparator peptide” value ([2]; comparator (parent/control peptide) as named in the sentence) read?
Answer: significant loss in activity

Question: Which IC50 ([2]; IgE-inhibition activity of synthetic peptides, read-out: Inhibition activity: C+hd 50 +l (uM) ± s.d.) does the source give for CC(C)C[C@@H]1NC(=O)[C@H](CCC(=O)O)NC(=O)CCCCNC(=O)[C@H](CCC(=O)O)NC(=O)[C@H](Cc2ccc(O)cc2)NC(=O)[C@@H]2CSSC[C@H](NC1=O)C(=O)N1CCC[C@H]1C(=O)N[C@@H](CC(=O)O)C(=O)N[C@@H](C(C)C)C(=O)N[C@H](C(=O)N[C@@H](Cc1ccc(O)cc1)C(=O)N[C@H](C(N)=O)C(C)C)CSSC[C@H](NC(=O)[C@H](CCC(N)=O)NC(=O)[C@@H](N)C(C)C)C(=O)N1CCC[C@H]1C(=O)N[C@@H](Cc1c[nH]cn1)C(=O)N[C@@H](Cc1ccccc1)C(=O)N2 [IGE187, VQCPHFCYEavaELCPDVCYV-nh2] (H-VQCPHFCYE[Ava]ELCPDVCYV-NH2; disulfide 3-17, 7-13 (inferred); N-terminus assumed) here?
Answer: 0.09 ± 0.02 µM
